# Source: PubChem BioAssay (NCATS)
# Several values for one entry are separate records, joined by “and”; a condition that tells them apart may be missing. Identical values can stand only once. Inconclusive means that the source gave no clear call. Such entries were picked first, then a sample of the others. For part of these data: A potency beside an inconclusive call is a rough fit, not a confirmed value. A structure can be active in one record and inactive in another. Activity calls are given as the source filed them. Unless noted, calls come from the whole dose curve; as a rule, active = well fitted curve in the direction sought with a large enough effect; inconclusive = small, poorly fitted or top-dose-only effect, or another doubt; inactive = no such curve, though single readings can be large; an effect the other way counts as inactive or inconclusive.
# Columns and labels:
# [1] = Primary qHTS for inhibitors of nuclear receptor binding SET domain protein 2 (NSD2) in an RCH-ACV wild type WT cells (2C) (AID 1645877); settings: RCH-ACV NSD2 WT (2C) viability, CellTiter-Glo, 72 h; series mostly up to 44.9 µM; note: nearly all actives have a fitted effect of over 70% in size; note: potency is the fitted concentration of half-maximal effect
# [2] = Primary qHTS for inhibitors of nuclear receptor binding SET domain protein 2 (NSD2) in an isogenic RCH-ACV NSD2 p.E1099K mutant (9B) (AID 1645876); settings: RCH-ACV (leukaemia line) NSD2 E1099K (9B) viability, CellTiter-Glo, 72 h; series mostly up to 44.9 µM; note: nearly all actives have a fitted effect of over 70% in size; note: potency is the fitted concentration of half-maximal effect
# [3] = Primary fluorescence-based thiol-reactive (MSTI) qHTS assay for identification of artifact compounds. (AID 1845221); settings: MSTI thiol-reactivity probe, 1 h; series mostly up to 53.8 µM; note: potency is the fitted concentration of half-maximal effect;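 note: thiol-reactive compounds lower the probe fluorescence signal; nearly all actives have a fitted effect of over 65% in size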
# Summary of the method: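 First, 4 uM MSTI in 2% DMSO/PBS pH 7.4 was dispensed; next, compounds were added; then plates sat 1 h at room temperature without light. Finally, emission at 598 nm was recorded.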
# [4] = biological target: Phospholipid hydroperoxide glutathione peroxidase GPX4 (Homo sapiens) (UniProt P36969); assay: Primary qHTS Assay for Inhibitors of Recombinant Selenoprotein Glutathione Peroxidase 4 (GPX4) (AID 1845192); settings: recombinant GPX4, GR-coupled NADPH fluorescence, 15 min; series mostly up to 50 µM; note: potency is the fitted concentration of half-maximal effect; nearly all actives have a fitted effect of over 65% in size
# Sequence of UniProt P36969 (P36969 whole entry, looked up): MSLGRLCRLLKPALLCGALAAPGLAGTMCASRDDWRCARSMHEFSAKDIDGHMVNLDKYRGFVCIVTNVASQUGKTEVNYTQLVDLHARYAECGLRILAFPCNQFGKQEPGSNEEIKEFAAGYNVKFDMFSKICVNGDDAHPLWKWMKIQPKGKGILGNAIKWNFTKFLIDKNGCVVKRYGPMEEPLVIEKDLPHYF
# Summary of the method: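 Steps: GPX4 plus compound, 30 min RT; add GR/GSH/NADPH master mix; start with cumene hydroperoxide; read 340/450 nm fluorescence at 0 and 15 min. Finals were 200 nM GPX4, 1 mM GSH, 0.5 mM CHP, 0.5 mM NADPH, 100 nM GR.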
# [5] = NCATS anti-infectives library activity on HEK293 viability as a counter-qHTS vs the C. elegans viability qHTS (AID 1745854); settings: HEK293 viability counter-screen; series mostly up to 41.8 µM
# Summary of the method: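 Cytotoxicity counter-screen to a worm viability qHTS: CellTiter-Glo luminescence read 10 min after reagent addition. Compounds (final up to 41.7 uM, a 1:5 dilution series) incubated 24 hr at 37C with 1,500 HEK293 cells per well; digitonin control.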
# [6] = biological target: Glutathione peroxidase 1 (Homo sapiens) (UniProt P07203); assay: Primary qHTS Assay for Inhibitors of Recombinant Selenoprotein Glutathione Peroxidase 1 (GPX1) (AID 1845191); settings: recombinant GPX1, GR-coupled NADPH fluorescence, 15 min; series mostly up to 48.8 µM; note: nearly all actives have a fitted effect of over 65% in size; note: potency is the fitted concentration of half-maximal effect
# Sequence of UniProt P07203 (P07203 whole entry, looked up): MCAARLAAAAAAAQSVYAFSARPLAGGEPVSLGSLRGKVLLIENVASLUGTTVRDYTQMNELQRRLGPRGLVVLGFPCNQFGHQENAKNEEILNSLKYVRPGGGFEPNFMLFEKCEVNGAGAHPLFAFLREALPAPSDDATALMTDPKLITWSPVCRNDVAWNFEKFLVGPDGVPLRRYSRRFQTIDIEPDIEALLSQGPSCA
# Summary of the method: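 GR-coupled readout: NADPH consumption tracked by fluorescence, ex 340/em 450 nm, at t=0 and after 15 min at RT. Final mix 10 nM GPX1, 1 mM GSH, 0.5 mM CHP, 0.5 mM NADPH, 100 nM GR, 0.01% BSA, following 30 min enzyme–compound preincubation.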
# [7] = NCATS anti-infectives library activity on the primary C. elegans qHTS viability assay (AID 1745855; calls by dose curve; note: potency is the fitted concentration of half-maximal effect); settings: C. elegans worm area imaging, day 7; series mostly up to 41.8 µM
# Summary of the method: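 GFP read-out by 488 nm laser cytometry at day 0, 3 and 7, gated on object perimeter, area and peak intensity, scored viability of PE254-GFP-FLuc worms exposed to compound in S medium with bacterial capsules at 21 °C.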
# [8] = biological target: Nuclear receptor subfamily 1 group I member 3 (Homo sapiens) (UniProt Q14994); assay: Primary qHTS for antagonist of constitutive androstane receptor (CAR) against the NCATS DSHEA and TCM libraries (AID 1794836); settings: CAR reporter cell assay, antagonist mode, luciferase; series mostly up to 40 µM; note: potency is the fitted concentration of half-maximal effect
# Sequence of UniProt Q14994 (Q14994 whole entry, looked up): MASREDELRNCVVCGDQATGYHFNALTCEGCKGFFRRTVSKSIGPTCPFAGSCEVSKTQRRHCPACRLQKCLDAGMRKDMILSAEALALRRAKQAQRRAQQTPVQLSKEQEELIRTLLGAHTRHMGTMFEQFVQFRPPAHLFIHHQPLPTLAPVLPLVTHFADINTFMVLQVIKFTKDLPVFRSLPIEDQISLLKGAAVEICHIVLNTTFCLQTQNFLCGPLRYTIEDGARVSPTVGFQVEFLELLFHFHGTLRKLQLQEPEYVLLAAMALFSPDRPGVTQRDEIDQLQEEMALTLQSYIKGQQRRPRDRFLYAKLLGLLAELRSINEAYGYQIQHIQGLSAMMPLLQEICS
# Summary of the method: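 HepG2-CYP2B6-hCAR cells, attached 5 h, given compounds plus CITCO agonist […], incubated 24 h at 37 C. Luciferase luminescence read, multiplexed with CellTiter-Fluor viability (Ex/Em 405/540 nm).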
# Tags give direction and shape of the fitted curve.
structure (smiles),measurement,setting,value
Cc1cnc(-c2cc(N3CCN(C(=O)CCS(C)(=O)=O)CC3)ncc2Cl)c(C)c1,Potency,[1],inactive
Cn1cc(-c2[nH]c3cc(NC(=O)[C@H](N)C4CCCCC4)cc4c3c2C=NNC4=O)cn1,Potency,[1],active: 728 nM and active: 742 nM
O=C1CN2Cc3c(ccc(Cl)c3Cl)N=C2N1,Potency,[1],inactive
CN(C)CC(=O)N1CCC(c2ccc(NC(=O)c3ncc(C#N)[nH]3)c(C3=CCCCC3)c2)CC1,Potency,[2],active: 5.8 µM and active: 11.8 µM
same,Potency,[3],inactive
NC(=O)N1CCC(CC(=O)N2CCC([C@H]3c4ncc(Br)cc4CCc4cc(Cl)cc(Br)c43)CC2)CC1,Potency,[1],"inconclusive: 10.5 µM [inhibitor, partial curve, poor fit]"
CCOc1ccn(-c2ccc(F)cc2)c(=O)c1C(=O)Nc1ccc(Oc2ccnc(N)c2Cl)c(F)c1,Potency,[1],active: 8.17 µM and active: 7.42 µM
CCCc1nc(C(C)(C)O)c(C(=O)O)n1Cc1ccc(-c2ccccc2-c2nn[nH]n2)cc1,Potency,[2],inactive
same,Potency,[4],active: 17.8 µM
CCCCCCCc1ccc(CCc2cccc(O)c2C(=O)O)cc1,Potency,[2],"inconclusive: 23.5 µM [inhibitor, single point]"
same,Potency,[4],active: 20.2 µM
NCC(=O)Nc1ccc(-n2nc(C(F)(F)F)cc2-c2ccc3c(ccc4ccccc43)c2)cc1,Potency,[1],active: 4.09 µM and active: 2.09 µM
CCCCc1oc2ccc(NS(C)(=O)=O)cc2c1C(=O)c1ccc(OCCCN(CCCC)CCCC)cc1,Potency,[2],active: 2.99 µM and active: 11.5 µM and active: 5.9 µM
same,Potency,[3],"inconclusive: 33.6 µM [inhibitor, single point]"
COc1ccc2c(c1)c(C1=C(c3c[nH]c4ccccc34)C(=O)NC1=O)cn2CCCN(C)C,Potency,[1],active: 6.61 µM
CC(C)(O)CCc1ccc(OCc2cc(-c3cccc(OC(F)F)c3)c3ncccc3c2)cc1,Potency,[1],"inconclusive: 26.3 µM [inhibitor, single point]"
CCc1nc(-c2cccc(C)c2)c(-c2ccnc(NC(=O)c3ccccc3)c2)s1,Potency,[1],active: 16.3 µM
CC(=O)SC[C@@H](C)C(=O)N1CCC[C@H]1C(=O)N[C@@H](Cc1ccccc1)C(=O)O,Potency,[1],inactive
COc1cc(-c2nn(C3CCC(N4CCN(C(C)=O)CC4)CC3)c3ncnc(N)c23)ccc1NC(=O)c1cc2ccccc2n1C (stereo not given),Potency,[1],active: 258 nM and active: 1.05 µM
same,Potency,[4],"inconclusive: 32.1 µM [inhibitor, single point]"
Nc1nc2c(ncn2COC(CO)CO)c(=O)[nH]1,Potency,[5],inactive
same,Potency,[6],inactive
Nc1ccc(C(=O)c2cc3c(ccc4ccccc43)[nH]2)cc1,Potency,[1],active: 1.71 µM
same,Potency,[6],"inconclusive: 56.2 µM [inhibitor, single point]"
same,Potency,[4],"inconclusive: 20 µM [inhibitor, partial curve, poor fit]"
Cc1ccc(S(=O)(=O)OCC(=O)Nc2ccc(C(=O)O)c(O)c2)cc1,Potency,[7],active: 12.9 µM
CC1(C)CC(=O)c2c(C(F)(F)F)nn(-c3ccc(C(N)=O)c(NC4CCC(O)CC4)c3)c2C1 (stereo not given),Potency,[1],active: 57.8 nM and active: 83.3 nM
same,Potency,[3],inactive
NC(=O)c1cnccn1,Potency,[1],"inconclusive: 9.34 µM [inhibitor, single point]"
same,Potency,[8],"inconclusive: 3.98 µM [inhibitor, full curve]"
